According to PubChem BioAssay AID504332 (National Center for Advancing Translational Sciences (NCATS), 2011):
Several values for one entry are separate records, joined by “and”; a condition that tells them apart may be missing. Equal values may be shown once. The whole screen tested about 350,000 compounds, of which about 31,000 (8.9%) were called active. The inconclusive results got no clear call from the source; some entries with a clear call stand among them for comparison. The call rests on the fitted dose curve; in most records, active means well fitted inhibition curve with a large enough effect; inconclusive means small, poorly fitted or top-dose-only effect; inactive means no such curve, though single readings can be large or run the other way. A potency beside an inconclusive call is a rough fit, not a confirmed value.

target: Histone-lysine N-methyltransferase EHMT2 (Homo sapiens) (UniProt Q96KQ7); assay: qHTS Assay for Inhibitors of Histone Lysine Methyltransferase G9a; conditions: G9a H3K9 monomethylation, AlphaScreen, 2 h; activity, negative = inhibition: at 59 µM (top of the series) unless noted; further: nearly all actives have a fitted effect of over 75% in size
How it was run: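 AlphaScreen detection with an anti-monomethyl H3K9 antibody quantified product after a 2 h room-temperature reaction containing 500 nM biotinylated H3K9 peptide, 20 µM SAM and 20 nM enzyme, which had been preincubated 15 min with compound.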
On the % scale 0 is the no-effect control and ±100 the full control effect; potency means the concentration at half of the fitted maximal effect; tags describe the fitted curve by direction and shape.

UniProt Q96KQ7, sequence (Q96KQ7 whole entry, looked up): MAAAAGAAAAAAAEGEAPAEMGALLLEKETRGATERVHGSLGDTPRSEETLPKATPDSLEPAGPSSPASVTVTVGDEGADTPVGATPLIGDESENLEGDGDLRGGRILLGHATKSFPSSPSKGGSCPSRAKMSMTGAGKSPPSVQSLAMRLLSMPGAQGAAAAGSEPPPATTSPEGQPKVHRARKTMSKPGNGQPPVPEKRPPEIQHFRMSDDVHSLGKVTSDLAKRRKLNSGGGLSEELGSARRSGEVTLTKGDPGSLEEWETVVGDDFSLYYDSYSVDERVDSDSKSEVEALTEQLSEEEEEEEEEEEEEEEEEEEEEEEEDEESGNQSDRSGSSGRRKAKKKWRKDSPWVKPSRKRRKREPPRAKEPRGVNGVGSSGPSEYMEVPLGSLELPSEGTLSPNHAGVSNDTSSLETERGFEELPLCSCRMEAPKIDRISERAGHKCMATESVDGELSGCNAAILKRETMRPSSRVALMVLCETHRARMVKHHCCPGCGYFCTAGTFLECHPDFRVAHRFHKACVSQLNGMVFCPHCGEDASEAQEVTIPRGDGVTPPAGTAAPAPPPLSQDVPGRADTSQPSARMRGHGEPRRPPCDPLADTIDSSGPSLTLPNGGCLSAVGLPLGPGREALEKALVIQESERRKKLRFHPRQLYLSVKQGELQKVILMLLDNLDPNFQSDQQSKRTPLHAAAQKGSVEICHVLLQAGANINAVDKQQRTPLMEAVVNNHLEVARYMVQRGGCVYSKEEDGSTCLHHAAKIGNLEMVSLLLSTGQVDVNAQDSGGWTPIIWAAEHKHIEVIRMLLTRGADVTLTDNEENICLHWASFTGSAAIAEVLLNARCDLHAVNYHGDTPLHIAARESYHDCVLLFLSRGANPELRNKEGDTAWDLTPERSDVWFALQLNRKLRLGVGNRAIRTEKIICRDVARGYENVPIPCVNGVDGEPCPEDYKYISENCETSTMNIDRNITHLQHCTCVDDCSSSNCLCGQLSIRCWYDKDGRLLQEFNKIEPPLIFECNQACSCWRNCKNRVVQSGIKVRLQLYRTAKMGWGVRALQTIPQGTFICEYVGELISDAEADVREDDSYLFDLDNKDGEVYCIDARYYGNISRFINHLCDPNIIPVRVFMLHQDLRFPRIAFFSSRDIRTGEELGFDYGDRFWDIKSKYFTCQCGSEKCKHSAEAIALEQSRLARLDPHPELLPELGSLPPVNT

Row | SMILES | Potency | activity, negative = inhibition
1 | N#CCCN1CCNCC1 | inconclusive: 35.5 µM [inhibitor, single point] | –
2 | C[C@@]12CCC=C[C@H]1[C@H](c1ccc(/C=C/c3ccccc3)cc1F)N(Cc1ccccc1)C2=O | inconclusive: 35.5 µM [inhibitor, single point] | –
3 | CCC(=O)N(C)CCc1cc2c(c(OC)c1/C=N/Nc1ccc(C(=O)O)cc1)OCO2 | inconclusive: 50.1 µM [inhibitor, partial curve, poor fit] | –
4 | CCCCc1nn2c(=O)cc(COC(=O)c3ccc(NC(=O)C4CCCCC4)cc3)nc2s1 | – | inactive: -13.8% [at 12.7 µM]
5 | CC1CC(C)CN(C(=O)COC(=O)c2cc([N+](=O)[O-])ccc2N2CCOCC2)C1 (centres undefined) | active: 79.4 µM | –
6 | O=C(CCNC(=O)c1ccco1)NC(Cc1c[nH]c2ccccc12)C(=O)O (centres undefined) | – | inactive: 10.8% [at 12.7 µM]
7 | O=C(Nc1ccncc1)c1cccc(S(=O)(=O)N2CCc3ccccc32)c1 | inconclusive: 79.4 µM [inhibitor, partial curve, poor fit] | –
8 | O=C1CC(c2ccco2)CC(O)=C1C=Nc1cc(Cl)cc(Cl)c1 (centres undefined) | active: 10 µM | –
9 | CCOC(=O)CN1C(=O)C(=O)N(Cc2ccccc2)C1=O | inactive | –
10 | Cc1cc(=O)[nH]c2c3ccccc3nn12 | inactive | –
11 | O=C(Nc1ccc(N2CCN(Cc3ccccc3)CC2)cc1)c1ccco1 | active: 79.4 µM | –
12 | Clc1ccc(-n2cc(-c3ccc(Br)cc3)[n+]3c2CCCCC3)cc1 | – | inactive: -1.26% [at 12.7 µM]
13 | CSc1cccc(N/C(=N/S(=O)(=O)c2ccccc2)NN)c1 | inconclusive: 79.4 µM [inhibitor, single point] | –
14 | CN(CC(=O)Nc1ccc(N2CCOCC2)cc1)C(=O)CCNC(=O)c1ccc(Br)cc1 | active: 44.7 µM | –
15 | Cc1ccc(-c2nc3cc(Cl)ccc3o2)cc1NC(=O)COc1ccc(F)cc1 | inactive | –
16 | COc1ccccc1CNC(=O)c1cnn2c(C)c(Cc3ccc(F)cc3)c(C)nc12 | inactive | –
17 | Cc1ccc(C(c2sc3nc(-c4ccco4)nn3c2O)N2CCN(Cc3ccccc3)CC2)cc1 (centres undefined) | inconclusive: 28.2 µM [inhibitor, single point] | –
18 | COc1cccc(C2CC(=O)Nc3c2c(=O)nc2c(C)cccn32)c1OC (centres undefined) | inactive | –
19 | CC(=O)c1cccc(OCC(=O)NC2CCCCCC2)c1 | inconclusive: 89.1 µM [inhibitor, single point] | –
20 | O=C(CCN1CCN(c2ccccn2)CC1)Nc1ccc(F)cc1 | inactive | –
21 | Cc1ccc(S(=O)(=O)N2CCCC(C(=O)O)C2)s1 (centres undefined) | inconclusive: 79.4 µM [inhibitor, single point] | –
22 | O=C(CSc1nnc(-c2ccccc2)n1-c1ccc(Cl)cc1)NNC(=S)Nc1ccccc1 | active: 10 µM | –
23 | O=c1[nH]c(CN2CCN(C/C=C/c3ccccc3)CC2)nc2cc(Cl)ccc12 | – | inactive: -41.1% [at 12.7 µM]

Row | SMILES | Potency | activity, negative = inhibition
24 | Cc1ccc(Cl)c(NC(=O)CSc2n[nH]c(=O)n2C2CC2)c1Cl | inconclusive: 3.55 µM [inhibitor, single point] | –
25 | Cc1cccc(N2CCN(C3(c4ccccc4)C(=O)c4ccccc4C3=O)CC2C)c1 (centres undefined) | active: 8.91 µM | –
26 | Cc1[nH]c2ccccc2c1C(c1ccncc1)N1CCN(c2ccc(F)cc2)CC1 (centres undefined) | inconclusive: 25.1 µM [inhibitor, single point] | –
27 | CCCc1cc2c(-c3ccccc3)cc(=O)oc2cc1OCc1ccc(C(=O)O)o1 | active: 44.7 µM | –
28 | O=C(c1ccco1)N1CCN(c2ncnc3scc(-c4cccs4)c23)CC1 | inconclusive: 8.91 µM [inhibitor, partial curve] | –
29 | CCOc1ccc(S(=O)(=O)N2CCN(CC)CC2)cc1NC(=O)c1ccccc1F | inconclusive: 50.1 µM [inhibitor, single point] | –
30 | COc1cc(CN2CCC(C)CC2)ccc1OCc1ccccc1 | inconclusive: 28.2 µM [inhibitor, single point] | –
31 | CCCCn1c(N)c(N(CCC(C)C)C(=O)CSc2nnc3ccccn23)c(=O)[nH]c1=O | – | inactive: 2.18% [at 2.33 µM]
32 | CC1=C(C(=O)OC2CCCC2)C(c2ccccc2Cl)CC(=O)N1 (centres undefined) | inactive | –
33 | O=C(/C(=N\O)n1cncn1)c1ccc(Cl)cc1Cl | inactive | –
34 | O=C(CCN1C(=O)/C(=C/C=C/c2ccccc2)SC1=S)Nc1nc2ccccc2s1 | inconclusive: 89.1 µM [inhibitor, single point] | –
35 | COc1ccc(N2CCN(C(=O)c3oc4ccccc4c3NC(=O)c3ccccc3OC)CC2)cc1 | active: 5.62 µM | –
36 | CN(Cc1ccccc1)Cc1nc2c(c(=O)n(C)c(=O)n2C)n1Cc1ccc(F)cc1 | inconclusive: 89.1 µM [inhibitor, partial curve, poor fit] | –
37 | Cn1c(-c2ccc(F)cc2)cnc1NCc1ccc(F)cc1 | active: 17.8 µM | –
38 | CCN(CC(=O)Nc1ccc(NC(C)=O)cc1)C(=O)c1ccccc1CCc1ccccc1 | inconclusive: 50.1 µM [inhibitor, partial curve, poor fit] | –
39 | CCOC(=O)c1[nH]c(C)c(C(=O)OCC(=O)NC(C)c2ccc(F)cc2)c1C (centres undefined) | inconclusive: 3.16 µM [inhibitor, single point] | –
40 | CC(NC(=O)c1cc2c(s1)CS(=O)(=O)C2)c1ccccc1 (centres undefined) | inactive | –
41 | O=C(Nc1ccc(S(=O)(=O)NCC2CCCO2)cc1)c1ccc(F)cc1 (centres undefined) | inactive | –
42 | O=c1c2c(-c3ccc([N+](=O)[O-])cc3)csc2nc2n1CCCCC2 | active: 35.5 µM | –
43 | Cc1ccc(C2=CC(c3ccc(N(C)C)cc3)n3nnnc3N2)cc1 (centres undefined) | inconclusive: 3.16 µM [inhibitor, full curve, poor fit] | –
44 | CC(C)(C)OC(=O)N1CCC(c2c(C(=O)NC3CCCCC3)cnn2-c2cccc(Cl)c2)CC1 | inactive | –
45 | Cc1ccc2nc(-c3ccncc3)cc(C(=O)Nc3ccc4c(c3)OCCO4)c2c1 | inactive | –
46 | O=S(=O)(Nc1cc(S(=O)(=O)N2CCOCC2)ccc1NCC1CCCO1)c1ccc(F)cc1 (centres undefined) | inconclusive: 3.16 µM [inhibitor, partial curve, poor fit] | –

Row | SMILES | Potency | activity, negative = inhibition
47 | Cc1ccc(C(=O)C(SC(C)(C)C)n2cncn2)cc1 (centres undefined) | inconclusive: 100 µM [inhibitor, single point] | –
48 | Cc1ccc(NC(=O)CCCc2ccccc2)c([N+](=O)[O-])c1 | active: 3.16 µM | –
49 | COc1ccc(CC(=O)N2CCN=C2SCc2ccc([N+](=O)[O-])cc2)cc1 | inconclusive: 17.8 µM [inhibitor, partial curve, poor fit] | –
50 | Cc1ccc(C(=O)NC(Cc2c[nH]c3ccccc23)C(=O)O)o1 (centres undefined) | inconclusive: 31.6 µM [inhibitor, partial curve, poor fit] | –
51 | COc1ccc(N2CCN(C(=O)[C@H](Cc3c[nH]c4ccccc34)NC(C)=O)CC2)cc1 | inconclusive: 50.1 µM [inhibitor, partial curve, poor fit] | –
52 | O=S(=O)(Cc1ccccc1)N1CCCCCC1 | inconclusive: 50.1 µM [inhibitor, partial curve, poor fit] | –
53 | COc1cccc(CNC(=O)CCCN2C(=O)C(c3ccccc3)Oc3cccnc32)c1OC (centres undefined) | inactive | –
54 | O=C(O)c1ccc2c(c1)C(=O)N([C@]1(C(=O)O)C[C@H]1c1ccccc1)C2=O | – | inactive: 3.23% [at 12.7 µM]
55 | O=C(O)c1ccncc1 | inactive | –
56 | CCOc1ccc(S(=O)(=O)NC(Cc2cnc[nH]2)C(=O)O)cc1 (centres undefined) | active: 50.1 µM | –
57 | C[N+](C)(C)CC/C=C1/c2ccccc2CSc2ccccc21 | inconclusive: 1.41 µM [inhibitor, full curve, poor fit] | –
58 | CC(C)(C)Nc1nc(NCc2cccnc2)nc(N2CCOCC2)n1 | inconclusive: 31.6 µM [inhibitor, single point] | –
59 | CC(C)CCSc1nc2c(c(=O)[nH]c(=O)n2C)n1CCCc1ccccc1 | active: 39.8 µM | –
60 | CCN(C(=O)COC(=O)/C=C/c1ccc(C)o1)c1c(N)n(Cc2ccccc2)c(=O)[nH]c1=O | active: 11.2 µM | –
61 | Cc1ccc(Cl)cc1N1CCN(C(=O)Cc2c(C(=O)O)[nH]c3ccc(Cl)cc23)CC1 | inconclusive: 56.2 µM [inhibitor, partial curve] | –
62 | COc1cnc(-c2ccccc2)nc1Oc1ccc(C(C)(C)C)cc1 | inactive | –
63 | COc1ccc(C(=O)/C=C/c2ccc(N3CCCCC3)c([N+](=O)[O-])c2)c(OC)c1 | active: 8.91 µM | –
64 | O=C(CCn1c(=O)c2cccn2c2cccnc21)N1CCN(c2cccc(Cl)c2)CC1 | inactive and inconclusive: 44.7 µM [inhibitor, partial curve, poor fit] | –
65 | O=C(NCc1ccco1)/C(=C\c1ccco1)NC(=O)c1ccccc1Cl | inconclusive: 79.4 µM [inhibitor, single point] | –
66 | Cc1cccc(-c2nc(SCC(=O)Nc3ccc4c(c3)OCO4)c(-c3ccccc3)[nH]2)c1 | inconclusive: 31.6 µM [inhibitor, partial curve, poor fit] | –
67 | Cc1nc(Nc2ccc3c(c2)OCO3)c2oc3ccccc3c2n1 | inconclusive: 39.8 µM [inhibitor, partial curve, poor fit] | –
68 | C#CCOCCOCCOCCNc1nc(N2CCN(C(=O)[C@H]([C@@H](C)CC)n3cc([C@@H](N)CO)nn3)CC2)nc(N2CCN(C(=O)[C@H](Cc3ccc(O)cc3)n3cc([C@@H](N)C(C)CC)nn3)CC2)n1 (some centres undefined) | – | inconclusive: -85.1% [inhibitor]
69 | COc1ccc(CCNC(=O)c2ccc3c(c2)N(Cc2ccc(Cl)cc2)CCS3)c(OC)c1 | inactive | –
